Assay results: the supplement of paper PMC4967469

Tests used:
Test in all cases: Viability of human cancer cell lines after 72 h of drug (GDSC screen)
[1] = compound: Oc1ccc2ccccc2c1SSc1c(O)ccc2ccccc12 [IPA-3]; details: top dose 32 µM; top dose inferred
Procedure: (§1)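 Human cancer cell lines in 384-well plates, medium with 10% serum, drug for 72 h over a 256-fold dose range (nine 2-fold or five 4-fold steps up to the top dose). Adherent lines were fixed and stained with the nucleic acid dye Syto60, suspension lines read with resazurin; signal relative to control wells, capped at 0 and 100%. One two-parameter sigmoid per drug and line, fitted in a mixed model over all curves with the slope shared within a line.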

[2] = compound: CN(C)C/C=C/C(=O)Nc1ccc(C(=O)Nc2cccc(Nc3nccc(-c4cccnc4)n3)c2)cc1 [ZG-10]; details: top dose 10 µM; top dose inferred
Procedure: as §1

[3] = compound: CN1CCc2c(c3ccccc3n2Cc2ccc(C(=O)NO)cc2)C1 [Tubastatin A]; details: top dose 20 µM
Procedure: as §1

[4] = compound: O=C(NOCC1CC1)c1ccc(F)c(F)c1Nc1ccc(I)cc1Cl [CI-1040]; details: top dose 10 µM; top dose inferred
Procedure: as §1

[5] = compound: COc1cc2c(Oc3ccc(NC(=O)C4(C(=O)Nc5ccc(F)cc5)CC4)cc3F)ccnc2cc1OCCCN1CCOCC1 [XL-880]; details: top dose 5.12 µM; top dose inferred
Procedure: as §1

[6] = compound: Cn1nnc2c(C(N)=O)ncn2c1=O [Temozolomide]; details: top dose 30 µM
Procedure: as §1

Row | Cell Line | AUC [1] | IC50 [1] [µM] | AUC [2] | IC50 [2] [µM] | AUC [3] | IC50 [3] [µM] | AUC [4] | IC50 [4] [µM] | AUC [5] | IC50 [5] [µM] | AUC [6] | IC50 [6] [µM]
1 | ESS-1 (endometrium, adherent) | 0.781 | 11.8 | 0.675 | 1.81 | 0.876 | 16.3 | 0.912 | > 10 | 0.988 | > 5.12 | 0.989 | > 30
2 | Capan-2 (pancreas, adherent) | 0.937 | > 32 | 0.799 | 6 | 0.978 | > 20 | 0.816 | 7.1 | 0.656 | 0.954 | 0.983 | > 30
3 | NCI-H2347 (lung adenocarcinoma, adherent) | 0.775 | 15.5 | 0.726 | 3.19 | 0.945 | > 20 | 0.845 | 9.67 | 0.689 | 1.22 | 0.98 | > 30
4 | EW-7 (Ewing sarcoma, semi-adherent) | 0.834 | 17.4 | 0.627 | 1.33 | 0.891 | 18.4 | 0.975 | > 10 | 0.508 | 0.336 | 0.981 | > 30
5 | 451Lu (melanoma, adherent) | 0.882 | 31.4 | 0.819 | 5.37 | 0.98 | > 20 | 0.32 | 0.202 | 0.781 | 2.04 | 0.988 | > 30
6 | EPLC-272H (lung squamous cell carcinoma, adherent) | 0.859 | > 32 | 0.604 | 1.25 | 0.852 | 18.6 | 0.781 | 4.7 | 0.5 | 0.319 | 0.975 | > 30
7 | OE21 (oesophagus, adherent) | 0.817 | 27.1 | 0.561 | 0.977 | 0.959 | > 20 | 0.833 | > 10 | 0.676 | 1.2 | 0.943 | > 30
8 | PCI-6A (head and neck, adherent) | 0.988 | > 32 | 0.836 | 6.47 | 0.912 | > 20 | 0.776 | 3.91 | 0.493 | 0.307 | 0.964 | > 30
9 | MFE-280 (endometrium, adherent) | 0.958 | > 32 | 0.423 | 0.363 | 0.935 | > 20 | 0.94 | > 10 | 0.519 | 0.366 | 0.98 | > 30
10 | NCI-H1623 (lung adenocarcinoma, adherent) | 0.945 | > 32 | 0.759 | 4.24 | 0.967 | > 20 | 0.802 | 6.27 | 0.809 | 3.44 | 0.983 | > 30
11 | NCI-H1688 (small cell lung carcinoma, adherent) | 0.98 | > 32 | 0.892 | > 10 | 0.97 | > 20 | 0.981 | > 10 | 0.609 | 0.661 | 0.984 | > 30
12 | HCC-15 (lung squamous cell carcinoma, adherent) | 0.979 | > 32 | 0.804 | 6.77 | 0.97 | > 20 | 0.448 | 0.434 | 0.767 | 2.45 | 0.97 | > 30
13 | C32 (melanoma, adherent) | 0.946 | > 32 | 0.596 | 1.17 | 0.985 | > 20 | 0.373 | 0.273 | 0.773 | 2.12 | 0.966 | > 30
14 | JHH-1 (liver, adherent) | 0.851 | 28 | 0.77 | 4.12 | 0.841 | 15.7 | 0.407 | 0.339 | 0.814 | 3.08 | 0.983 | > 30
15 | D-392MG (glioma, adherent) | 0.976 | > 32 | 0.828 | 9.43 | 0.975 | > 20 | 0.868 | > 10 | 0.53 | 0.399 | 0.976 | > 30
16 | EFM-192A (breast, adherent) | 0.773 | 13.9 | 0.711 | 2.65 | 0.937 | > 20 | 0.955 | > 10 | 0.91 | > 5.12 | 0.979 | > 30
17 | HCC1937 (breast, adherent) | 0.821 | 22.3 | 0.848 | 9.25 | 0.978 | > 20 | 0.869 | > 10 | 0.842 | 4.43 | 0.983 | > 30
18 | HCC1569 (breast, adherent) | 0.933 | > 32 | 0.682 | 2.41 | 0.96 | > 20 | 0.976 | > 10 | 0.729 | 1.82 | 0.961 | > 30
19 | NCI-H1792 (lung adenocarcinoma, adherent) | 0.986 | > 32 | 0.982 | > 10 | 0.99 | > 20 | 0.814 | 4.8 | 0.741 | 1.43 | 0.988 | > 30
20 | RO82-W-1 (thyroid, adherent) | 0.965 | > 32 | 0.659 | 1.97 | 0.957 | > 20 | 0.863 | > 10 | 0.751 | 2.12 | 0.973 | > 30
21 | LC-1-sq (lung squamous cell carcinoma, adherent) | 0.985 | > 32 | 0.983 | > 10 | 0.954 | > 20 | 0.885 | > 10 | 0.848 | 4.86 | 0.983 | > 30
22 | HSC-2 (head and neck, adherent) | 0.764 | 10.7 | 0.795 | 4.24 | 0.989 | > 20 | 0.866 | 7.79 | 0.767 | 1.76 | 0.979 | > 30

Row | Cell Line | AUC [1] | IC50 [1] [µM] | AUC [2] | IC50 [2] [µM] | AUC [3] | IC50 [3] [µM] | AUC [4] | IC50 [4] [µM] | AUC [5] | IC50 [5] [µM] | AUC [6] | IC50 [6] [µM]
23 | HT-115 (large intestine, adherent) | 0.983 | > 32 | 0.964 | > 10 | 0.989 | > 20 | 0.941 | > 10 | 0.874 | 4.22 | 0.991 | > 30
24 | FTC-133 (thyroid, adherent) | 0.981 | > 32 | 0.772 | 4.24 | 0.984 | > 20 | 0.848 | 8.55 | 0.98 | > 5.12 | 0.946 | > 30
25 | OVTOKO (ovary, adherent) | 0.93 | > 32 | 0.773 | 5 | 0.943 | > 20 | 0.815 | 7.45 | 0.655 | 0.97 | 0.973 | > 30
26 | RT4 (bladder, adherent) | 0.98 | > 32 | 0.81 | 5.59 | 0.892 | > 20 | 0.973 | > 10 | 0.55 | 0.442 | 0.986 | > 30
27 | TOV-21G (ovary, adherent) | 0.802 | 17.4 | 0.673 | 1.98 | 0.985 | > 20 | 0.806 | 5.62 | 0.768 | 2.08 | 0.983 | > 30
28 | VMRC-MELG (melanoma, adherent) | 0.967 | > 32 | 0.94 | > 10 | 0.98 | > 20 | 0.954 | > 10 | 0.538 | 0.408 | 0.988 | > 30
29 | BT-483 (breast, adherent) | 0.963 | > 32 | 0.951 | > 10 | 0.971 | > 20 | 0.898 | > 10 | 0.961 | > 5.12 | 0.975 | > 30
30 | UACC-62 (melanoma, adherent) | 0.988 | > 32 | 0.697 | 2.21 | 0.985 | > 20 | 0.904 | > 10 | 0.87 | 4.68 | 0.966 | > 30
31 | HT-1197 (bladder, adherent) | 0.737 | 10.9 | 0.969 | > 10 | 0.973 | > 20 | 0.918 | > 10 | 0.866 | > 5.12 | 0.966 | > 30
32 | RKN (ovary, adherent) | 0.934 | > 32 | 0.758 | 3.67 | 0.981 | > 20 | 0.572 | 0.998 | 0.779 | 2.21 | 0.984 | > 30
33 | JHU-022 (head and neck, adherent) | 0.981 | > 32 | 0.728 | 3.36 | 0.981 | > 20 | 0.685 | 2.38 | 0.727 | 1.71 | 0.979 | > 30
34 | HCT-15 (large intestine, adherent) | 0.84 | 24.1 | 0.985 | > 10 | 0.975 | > 20 | 0.91 | > 10 | 0.671 | 0.988 | 0.984 | > 30
35 | NCI-H292 (lung adenocarcinoma, adherent) | 0.979 | > 32 | 0.788 | 5.42 | 0.841 | 18.4 | 0.609 | 1.33 | 0.497 | 0.314 | 0.949 | > 30
36 | CAL-12T (non-small cell lung carcinoma, adherent) | 0.656 | 5.73 | 0.95 | > 10 | 0.951 | > 20 | 0.823 | 6.83 | 0.627 | 0.751 | 0.975 | > 30
37 | CCK-81 (large intestine, adherent) | 0.929 | > 32 | 0.843 | 6.45 | 0.972 | > 20 | 0.921 | > 10 | 0.763 | 1.74 | 0.989 | > 30
38 | huH-1 (liver, adherent) | 0.984 | > 32 | 0.967 | > 10 | 0.983 | > 20 | 0.889 | > 10 | 0.984 | > 5.12 | 0.982 | > 30
39 | HuH-7 (liver, adherent) | 0.983 | > 32 | 0.804 | 4.97 | 0.96 | > 20 | 0.839 | 6.79 | 0.841 | 3.55 | 0.986 | > 30
40 | LS-180 (large intestine, adherent) | 0.982 | > 32 | 0.901 | > 10 | 0.974 | > 20 | 0.819 | 6.79 | 0.875 | > 5.12 | 0.982 | > 30
41 | NCI-H28 (mesothelioma, adherent) | 0.981 | > 32 | 0.749 | 4.17 | 0.975 | > 20 | 0.855 | > 10 | 0.828 | 4.61 | 0.977 | > 30
42 | MDA-MB-175-VII (breast, adherent) | 0.987 | > 32 | 0.965 | > 10 | 0.983 | > 20 | 0.882 | > 10 | 0.986 | > 5.12 | 0.986 | > 30
43 | CHSA0011 (chondrosarcoma, adherent) | 0.973 | > 32 | 0.595 | 1.27 | 0.934 | > 20 | 0.877 | > 10 | 0.702 | 1.51 | 0.977 | > 30
44 | VMRC-RCZ (kidney, adherent) | 0.765 | 13.7 | 0.766 | 4.28 | 0.971 | > 20 | 0.885 | > 10 | 0.672 | 1.05 | 0.978 | > 30

The IC50 comes from the fitted curve, where viability falls to half of the control; fits outside the tested doses are given as limits. AUC, from the same fit, is the share of area under the viability curve across the 256-fold dose range; it is 1 without any effect and falls as sensitivity rises. For part of these data: An inferred top dose was derived from the fitted curves, not read from the paper.
